# Article PMC12136788
# The list shows a part of the results.
# B1: chr3:150289932:150289933:+_ENSG00000144895_ENST00000460851|hu_hu|hu_hu_hu_mus_False|8_18 (ssRNA)
# RNA: GGGAGUUCUACAGUCCGACGAUCCUUGUAGUUUUUAACAUCCCAUACUUCCAUUUGUCCUCGAAGAUUUCCAAAUCCAGCCAGCACUAAUAUAUGUCCAUGAGGGCUAUAGAAGGCUGCAUUACGAGGACCAGUUCCAAAGUCCAACAGAGGAUUGAGCAUCA
# B2: chr10:112362630:112362631:-_ENSMUSG00000074748_ENSMUST00000099276|mus_hu|FALSE|FALSE (ssRNA)
# RNA: GGGAGUUCUACAGUCCGACGAUCAUGGACUACUUAUGCAAAAAUAAAAAUCUCCAAAACAAAGGACAGUGGUGAGCUUCACUACCCUCCCCCGAUGAUCCCAGCAUGCGAUAAUGCCAGGCAGUGGUCCCUGGGCAUGCGAUGCAACAGAGGAUUGAGCAUCA
# B3: chr1:58468927:58468928:-_ENSMUSG00000026034_ENSMUST00000148330|mus_mus|mus_mus_mus_hu_False|18_108 (ssRNA)
# RNA: GGGAGUUCUACAGUCCGACGAUCAAUCUAUAAUUACGAUGUUCAUUACCUUAGCUAUGUACUUAAUGAACCAAAUUACCCAAACAAAAUAAACAUGGCAAUAUAAAAAUGUUAAGAAAAUAACUUACUGUACAAAAUAACUUACAACAGAGGAUUGAGCAUCA
# B4: chrX:102930994:102930995:-_ENSG00000123562_ENST00000441076|hu_mus|FALSE|FALSE (ssRNA)
# RNA: GGGAGUUCUACAGUCCGACGAUCAUAAGCCCUGUUUUACACUGACAGUUUUAAAGAACAUCAAUUAUACCAUGAAAGGACUAAACAGAAGUGUUUACAGAUACCAGACAAUAGUGAGCGGUCAGUAGACCUUCACAGGGCUUUCAACAGAGGAUUGAGCAUCA
# B5: chr1:150923288:150923289:+_ENSG00000143379_ENST00000271640|hu_mus|motif|central (ssRNA)
# RNA: GGGAGUUCUACAGUCCGACGAUCCAAACAGAACAUCUCCAGGAACAGAAAGUCACAGCCAGUCUCAAAAAGGUAGCGCUCGGUCUCCUGCAUCGUCCGAAGGCAGAGACCACAGGGUGUCUUAUAGAUUACAUGAAAGCCCAUCAACAGAGGAUUGAGCAUCA
# B6: chr15:30001172:30001173:-_ENSG00000104067_ENST00000400011|hu_hu|FALSE|FALSE (ssRNA)
# RNA: GGGAGUUCUACAGUCCGACGAUCUGGUGGUCUGAAAGUUGCUGGCUUAUUCUGAGAUGGAGGUGGGUCUGGUUUGGACACUAAGGAAUUCUGAAAAUCCAAUGACACUGAAUUACCUUCACCAUGUGCUCCCUUAGAAUGUAUCAACAGAGGAUUGAGCAUCA
# Molecular target: T1, UNK ZnF1-3 (human, UniProt Q9C0B0 31-174)
# T1 sequence: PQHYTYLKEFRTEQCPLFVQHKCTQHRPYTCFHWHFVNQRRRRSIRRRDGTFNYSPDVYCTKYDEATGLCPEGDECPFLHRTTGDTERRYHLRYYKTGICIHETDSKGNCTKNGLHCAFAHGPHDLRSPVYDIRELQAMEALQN
# Assay: nsRBNS (natural sequence RNA bind-n-seq); RBNS binding buffer (assumed for nsRBNS): 25 mM Tris pH 7.5, 150 mM KCl, 3 mM MgCl2, 0.01% Triton X-100, 500 ug/ml BSA, 20 U/ml SUPERase-In, 4 C; UNK is unkempt and MSI1 is Musashi-1; names of the RNAs are library labels; protein concentration not given here; high values mean tight binding
row,Binder,binding signal [enrichment R]
1,B1,0.991
2,B2,1.24
3,B3,1.32
4,B4,1.21
5,B5,1.33
6,B6,1.09
